# Data taken from PMC4336329 (PLoS ONE, 2015).
# Hit rate of the full screen: of about 310,000 compounds, about 2,200 (0.71%) showed an effect of 50% or more. Effects have a minus sign here. The list shows a part of the results.
# Molecular target: human ether-à-go-go-related gene (hERG) potassium channel (human, UniProt Q12809)
# Assay: primary screen, population patch clamp on CHO cells stably expressing hERG
# human ether-à-go-go-related gene (hERG) potassium channel, sequence (Q12809 whole entry, looked up): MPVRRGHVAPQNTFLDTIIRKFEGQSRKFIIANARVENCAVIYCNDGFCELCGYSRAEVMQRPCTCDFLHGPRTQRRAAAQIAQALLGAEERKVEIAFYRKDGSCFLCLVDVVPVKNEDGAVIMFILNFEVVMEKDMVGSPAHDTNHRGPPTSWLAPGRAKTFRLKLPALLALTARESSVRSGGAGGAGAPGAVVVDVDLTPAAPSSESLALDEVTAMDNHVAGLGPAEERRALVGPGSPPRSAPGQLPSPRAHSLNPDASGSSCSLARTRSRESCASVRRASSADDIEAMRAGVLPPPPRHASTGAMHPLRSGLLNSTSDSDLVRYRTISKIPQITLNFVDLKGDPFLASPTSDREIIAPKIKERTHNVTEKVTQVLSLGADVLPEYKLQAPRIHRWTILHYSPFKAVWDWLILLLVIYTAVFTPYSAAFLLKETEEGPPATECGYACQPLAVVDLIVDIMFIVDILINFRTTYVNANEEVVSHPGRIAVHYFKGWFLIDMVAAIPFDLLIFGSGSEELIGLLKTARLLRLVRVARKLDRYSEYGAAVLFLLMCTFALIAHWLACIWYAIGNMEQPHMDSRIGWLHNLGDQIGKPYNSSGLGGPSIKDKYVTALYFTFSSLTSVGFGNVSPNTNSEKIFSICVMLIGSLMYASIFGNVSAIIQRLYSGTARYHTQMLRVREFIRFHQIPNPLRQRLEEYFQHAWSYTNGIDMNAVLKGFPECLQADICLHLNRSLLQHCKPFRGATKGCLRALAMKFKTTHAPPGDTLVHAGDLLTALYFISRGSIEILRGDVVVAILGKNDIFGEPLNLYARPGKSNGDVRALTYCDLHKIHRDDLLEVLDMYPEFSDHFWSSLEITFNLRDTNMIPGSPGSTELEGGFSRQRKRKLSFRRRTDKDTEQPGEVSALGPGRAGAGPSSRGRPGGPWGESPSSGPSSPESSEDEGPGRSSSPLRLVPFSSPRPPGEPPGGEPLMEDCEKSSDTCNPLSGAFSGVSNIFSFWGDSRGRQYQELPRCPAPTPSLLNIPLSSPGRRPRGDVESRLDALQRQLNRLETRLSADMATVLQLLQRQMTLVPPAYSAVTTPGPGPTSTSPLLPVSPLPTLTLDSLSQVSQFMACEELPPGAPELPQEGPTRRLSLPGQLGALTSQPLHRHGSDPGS
row,SMILES,"hERG current change (%, negative = inhibition) at 1uM [%]"
1,CN(C)S(=O)(=O)Nc1ccc(C(=O)O)cc1,-8.27
2,CCOCCN(C(=O)c1ccccc1Cl)c1ccccc1,13.5
3,CCOC(=O)CCNC(=O)N1CCCC(CNS(=O)(=O)c2cccs2)C1 (stereo not shown),12.8
4,O=C(c1cccc(C(F)(F)F)c1)C1CCCN(C(=O)CCCn2cncn2)C1 (stereo not shown),-18.7
5,CC1CCN(S(=O)(=O)c2ccc(C(=O)N3CCCC(C(F)(F)F)C3)cc2)CC1 (stereo not shown),5.83
6,CC(C)(C)c1ccc(C(=O)NNc2cc(Cl)cc(Cl)c2)cc1,12.9
7,COCC1CCN(Cc2c(C(=O)N3CCc4ccccc4C3)nc3ccc(Cl)cn23)C1 (stereo not shown),7.32
8,COc1ccc2oc(=N)c(C(=O)Nc3ccccc3Cl)cc2c1,-1.45
9,CC1CCC/C=C/C2CC(O)CC2C(O)/C=C/C(=O)O1 (stereo not shown),6.33
10,CCOc1ccc(C(=O)n2cnnc2N)cc1,16.9
11,Cc1ccc(C)c(OCC(=O)Nc2ccccc2C(=O)NC2CC2)c1,2.82
12,CC(=O)Nc1ccc(-c2csc(NC=C3C(=O)OC(C)(C)OC3=O)n2)cc1,17.8
13,Cc1cccc(C)c1NC(=O)c1cccc2c1C(=O)N(C1CCCCC1)C2,10.1
14,COc1ccc(Cl)cc1NC(=O)CN1C(=O)NC(C)(Cc2ccc(OC)c(OC)c2)C1=O (stereo not shown),8.86
15,CCn1ccc(C(=O)NCCCN2CCCC2=O)n1,-2.78
16,COc1ccc(Cc2c(O)nc[nH]c2=O)cc1,19.2
17,O=C(NCCNC(=O)c1ccc([N+](=O)[O-])cc1)c1ccncc1,16.5
18,CCC(=O)c1ccc(OCC(O)CN2CCN(S(=O)(=O)N3CCCCC3)CC2)cc1 (stereo not shown),3.13
19,Cc1cc(N)n(-c2ccccn2)n1,12.1
20,CCCCOC(=O)C(C)Nc1n[nH]c(=O)[nH]c1=O (stereo not shown),11.9
21,Cc1ccc(S(=O)(=O)N(C)C)cc1NC(=S)Nc1cccc2ccccc12,-2.98
22,CC12CCC(=O)N1C(C(=O)NNC(=O)c1ccccc1F)CS2 (stereo not shown),15.1

row,SMILES,"hERG current change (%, negative = inhibition) at 1uM [%]"
1,Cc1cc(Oc2ccccc2)nc(SCC(=O)Nc2ccc(Cl)c(Cl)c2)n1,-2.3
2,CC(C)(C)c1ccc(OCC(O)CN2CCc3ccccc3C2)cc1.Cl (stereo not shown),3.04
3,Cc1nn(-c2ccc(C(=O)OC(C)C)cc2)c(C)c1[N+](=O)[O-],12.7
4,S=C(NCCc1ccccc1)Nc1ccccc1Cl,8.47
5,COc1ccc(CN(CC(=O)NCc2ccco2)C(=O)CNS(=O)(=O)c2ccc(C)cc2)cc1,-0.462
6,COCCCNC(=S)N1CCN(c2nc3ccccc3s2)CC1,4.7
7,COc1ccccc1N1CCN(C(=O)c2onc(C)c2Cl)CC1,-9.89
8,COc1ccc(C(=O)N2CCCC(C(N)=O)C2)cc1S(=O)(=O)N1CCOCC1 (stereo not shown),10.7
9,O=C(NCCC1=CCCCC1)c1cc(S(=O)(=O)N2CCOCC2)ccc1F,2.18
10,Cc1cc2occ(CC(=O)NC3=NCCS3)c2cc1C(C)C,19.3
11,CCC(CC)C(=O)Nc1cccc(/C(C)=N\NC(=O)c2ccc(C)s2)c1,7.6
12,Cc1cc(C)cc(N(CC(=O)NCc2ccco2)S(=O)(=O)c2ccccc2)c1,8
13,Cc1cc2c(cc1S(=O)(=O)Nc1cccc(C)c1C)n(C)c(=O)c(=O)n2C,-10.7
14,CC1CC(C)CN(S(=O)(=O)c2ccc(C(=O)Nc3nnc(C4CC4)o3)cc2)C1 (stereo not shown),10.1
15,CCN(CC(=O)Nc1ccc2c(c1)OCCO2)C(=O)/C=C/c1ccc([N+](=O)[O-])cc1,-8.69
16,Cc1cc(C)cc(NC(=O)NC(C)C2CCCO2)c1 (stereo not shown),14
17,CCN(CC)CCOC(=O)c1ccc(N/C=C(/C#N)c2nc(-c3ccc(OC)cc3)cs2)cc1,14.1
18,COc1ccc(CC(=O)O/N=C(\N)Cc2ccc([N+](=O)[O-])cc2)cc1,-13.8
19,COCCNC(=O)C(c1ccc(C)cc1)N(Cc1cccs1)C(=O)CCC(=O)Nc1ccccn1 (stereo not shown),13.6
20,Cc1ccc(C(=O)c2cc([N+](=O)[O-])ccc2N2CCN(C)CC2)cc1,-40.4
21,Cc1ccc(NC(=O)CSc2nc3[nH]ncc3c(=O)[nH]2)cc1Cl,9.59
22,COc1ccccc1CN(C)C(=O)CSc1nnc(C2CC2)n1C1CC1,11.4

row,SMILES,"hERG current change (%, negative = inhibition) at 1uM [%]"
1,COc1ccc(-c2cc(C(=O)N3CCN(C(=O)c4ccco4)CC3)[nH]n2)cc1,-12.7
2,COC(=O)c1cccc(Nc2ccc([N+](=O)[O-])cn2)c1,12.6
3,Cc1cccc(S(=O)(=O)NC(Cc2c[nH]c3ccccc23)C(=O)O)c1 (stereo not shown),16.7
4,CN1CCN(CC(=O)c2ccccc2F)CC1.O=C(O)C(=O)O,18.5
5,O=C(N/N=C/c1cc([N+](=O)[O-])ccc1O)c1cc(-c2ccccc2)nc2ccccc12,17.8
6,O=C(CCC(=O)Nc1ccc(F)cc1)N/N=C/c1ccc(O)cc1,12.2
7,O=C(CSC1=NS(=O)(=O)c2cc(F)ccc2N1)Nc1ccccc1,11.8
8,Cc1cc(C(=O)O)c(C)n1Cc1ccncc1,4.87
9,COc1ccc(OCc2cc(C(=O)N[C@H]3CCCCNC3=O)no2)c(Cl)c1,8.31
10,COCc1cc(=O)oc2cc(NS(=O)(=O)c3ccc(C)cc3)ccc12,16.5
11,CCN(C(=O)COC(=O)CCOc1ccccc1)c1c(N)n(Cc2ccccc2)c(=O)[nH]c1=O,16
12,COc1cc(C(c2c(C)[nH][nH]c2=O)c2c(C)[nH][nH]c2=O)cc([N+](=O)[O-])c1O,5.04
13,Cc1ccnc(NC(=O)c2cc3cc(F)ccc3s2)c1,18.6
14,COc1ccc(S(=O)(=O)N2CCN(CC(=O)c3[nH]c(C)c(C(C)=O)c3C)CC2)cc1OC,10.5
15,Cc1ccc(C)c(N2CCN(C(=O)C3CCC3)CC2)c1,13.6
16,CC(C)(C)c1nc2c(s1)CCc1onc(-c3ccc(Cl)cc3)c1-2,14.9
17,Cn1nnnc1SCc1ccc(C(=O)Nc2ccccc2F)cc1,10.5
18,Cc1ccc(N(CC(=O)NCC2CCCO2)S(=O)(=O)c2ccc(Cl)cc2)cc1C (stereo not shown),-9.43
19,CN(C)c1ccnc(N(Cc2ccccc2)Cc2ccccc2)c1C#N.Cl,4.29
20,Cc1cc(C)c(NC(=O)CCCSc2nnc(N)s2)c(C)c1,-4.26
21,Cc1c(C(=O)OCC(=O)NCCN2C(=O)CSC2=O)cccc1[N+](=O)[O-],-0.686
22,Cc1ccc(-n2c(Cc3cccn3C)nnc2SCC(=O)N2CCN(c3ccccc3)CC2)cc1,7.16

row,SMILES,"hERG current change (%, negative = inhibition) at 1uM [%]"
1,COc1cccc(NC(=O)NCc2ccccn2)c1,10.4
2,COc1ccc(CCNC(=O)CCNC(=O)c2ccc([N+](=O)[O-])cc2)cc1,3.57
3,Cc1nn(C)c2ncc(C(N)=O)c(Oc3cccnc3)c12,5.33
4,COC(=O)C1CCN(C(=O)COC(=O)CNS(=O)(=O)c2ccc(SC)c([N+](=O)[O-])c2)CC1,3.87
5,Cc1nc2nc(SCC(=O)NCCCN3CCCCCC3)nn2c(C)c1Cc1ccccc1,5.32
6,COc1ccc(CCNC(=O)CN2CCN(c3cccc(Cl)c3)CC2)cc1OC,-1
7,Cn1c(CCNC(=O)c2ccccc2)nc2ccccc21,3.32
8,Cc1ccc(NC(=O)CSc2nc3ccccc3nc2N2CCCC2)cc1,-2.13
9,Cc1nn(CC(=O)NCCCN2CCCCC2)c(=O)c2cccn12,15.8
10,CCOC(=O)CNC(=S)N(Cc1ccc(C)cc1)Cc1ccc(C)o1,13.6
11,CC(=O)Nc1ccc(NC(=O)C2CCCN2C(=O)Nc2ccc(F)c([N+](=O)[O-])c2)cc1 (stereo not shown),9.34
12,CC(C)NC(=O)Nc1cccs1,0.285
13,CCCCn1c(N)c(NCCC(C)C)c(=O)[nH]c1=O,4.07
14,CCn1c(SCC(=O)NC2CCCCC2)nnc1C(CO)NC(=O)c1ccccc1 (stereo not shown),14.4
15,CCCN(Cc1ccc(C)cc1)C(=O)c1ccc(CNS(=O)(=O)c2ccc(C(C)=O)cc2)cc1,11.1
16,COc1cc(NC(=O)c2ccc(=O)[nH]n2)cc(OC)c1OC,10.1
17,CCOC(=O)c1sc(=NC(=O)c2ccc(Cl)s2)n(C)c1C,9.8
18,Cc1cc(C)nc(N/N=C/C2=C(N3CCOCC3)C(=C\c3ccc(Cl)cc3)/CC2)n1.Cl,-8.67
19,CCCCCn1c(SC(C)C(C)=O)nc2c1c(=O)[nH]c(=O)n2C (stereo not shown),-91.2
20,NC(=O)c1cc2cc(Cl)ccc2o/c1=N/NC(=O)c1cccs1,8.08
21,O=C(CN1CCN(Cc2cccc3ccccc23)CC1)NCCc1ccccc1,1.53
22,CN(c1ccc(OCC(=O)NC2=NCCS2)cc1)S(=O)(=O)c1ccc(F)cc1,11.2
